Laboratory results: PMC9643514
Results are given in words; binding and its absence hold for the method and conditions named. For some of these results: Binding seen in cells or lysates may run through a third protein. Some entries that bind do so weakly or less than the wild type. Sequences can lack the tags named with a protein. Each block holds one binder with its values, some of them ahead of it.

Sequences of proteins named here, by UniProt entry; tags and fusion partners are left off. Residues count along the entry.
UniProt Q99728, residues 566-777: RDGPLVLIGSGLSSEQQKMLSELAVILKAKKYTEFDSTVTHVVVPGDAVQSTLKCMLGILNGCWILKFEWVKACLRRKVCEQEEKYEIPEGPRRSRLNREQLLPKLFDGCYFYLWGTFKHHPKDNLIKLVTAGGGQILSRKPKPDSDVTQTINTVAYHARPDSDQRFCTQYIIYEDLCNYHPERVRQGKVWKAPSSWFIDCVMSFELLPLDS
UniProt P38398: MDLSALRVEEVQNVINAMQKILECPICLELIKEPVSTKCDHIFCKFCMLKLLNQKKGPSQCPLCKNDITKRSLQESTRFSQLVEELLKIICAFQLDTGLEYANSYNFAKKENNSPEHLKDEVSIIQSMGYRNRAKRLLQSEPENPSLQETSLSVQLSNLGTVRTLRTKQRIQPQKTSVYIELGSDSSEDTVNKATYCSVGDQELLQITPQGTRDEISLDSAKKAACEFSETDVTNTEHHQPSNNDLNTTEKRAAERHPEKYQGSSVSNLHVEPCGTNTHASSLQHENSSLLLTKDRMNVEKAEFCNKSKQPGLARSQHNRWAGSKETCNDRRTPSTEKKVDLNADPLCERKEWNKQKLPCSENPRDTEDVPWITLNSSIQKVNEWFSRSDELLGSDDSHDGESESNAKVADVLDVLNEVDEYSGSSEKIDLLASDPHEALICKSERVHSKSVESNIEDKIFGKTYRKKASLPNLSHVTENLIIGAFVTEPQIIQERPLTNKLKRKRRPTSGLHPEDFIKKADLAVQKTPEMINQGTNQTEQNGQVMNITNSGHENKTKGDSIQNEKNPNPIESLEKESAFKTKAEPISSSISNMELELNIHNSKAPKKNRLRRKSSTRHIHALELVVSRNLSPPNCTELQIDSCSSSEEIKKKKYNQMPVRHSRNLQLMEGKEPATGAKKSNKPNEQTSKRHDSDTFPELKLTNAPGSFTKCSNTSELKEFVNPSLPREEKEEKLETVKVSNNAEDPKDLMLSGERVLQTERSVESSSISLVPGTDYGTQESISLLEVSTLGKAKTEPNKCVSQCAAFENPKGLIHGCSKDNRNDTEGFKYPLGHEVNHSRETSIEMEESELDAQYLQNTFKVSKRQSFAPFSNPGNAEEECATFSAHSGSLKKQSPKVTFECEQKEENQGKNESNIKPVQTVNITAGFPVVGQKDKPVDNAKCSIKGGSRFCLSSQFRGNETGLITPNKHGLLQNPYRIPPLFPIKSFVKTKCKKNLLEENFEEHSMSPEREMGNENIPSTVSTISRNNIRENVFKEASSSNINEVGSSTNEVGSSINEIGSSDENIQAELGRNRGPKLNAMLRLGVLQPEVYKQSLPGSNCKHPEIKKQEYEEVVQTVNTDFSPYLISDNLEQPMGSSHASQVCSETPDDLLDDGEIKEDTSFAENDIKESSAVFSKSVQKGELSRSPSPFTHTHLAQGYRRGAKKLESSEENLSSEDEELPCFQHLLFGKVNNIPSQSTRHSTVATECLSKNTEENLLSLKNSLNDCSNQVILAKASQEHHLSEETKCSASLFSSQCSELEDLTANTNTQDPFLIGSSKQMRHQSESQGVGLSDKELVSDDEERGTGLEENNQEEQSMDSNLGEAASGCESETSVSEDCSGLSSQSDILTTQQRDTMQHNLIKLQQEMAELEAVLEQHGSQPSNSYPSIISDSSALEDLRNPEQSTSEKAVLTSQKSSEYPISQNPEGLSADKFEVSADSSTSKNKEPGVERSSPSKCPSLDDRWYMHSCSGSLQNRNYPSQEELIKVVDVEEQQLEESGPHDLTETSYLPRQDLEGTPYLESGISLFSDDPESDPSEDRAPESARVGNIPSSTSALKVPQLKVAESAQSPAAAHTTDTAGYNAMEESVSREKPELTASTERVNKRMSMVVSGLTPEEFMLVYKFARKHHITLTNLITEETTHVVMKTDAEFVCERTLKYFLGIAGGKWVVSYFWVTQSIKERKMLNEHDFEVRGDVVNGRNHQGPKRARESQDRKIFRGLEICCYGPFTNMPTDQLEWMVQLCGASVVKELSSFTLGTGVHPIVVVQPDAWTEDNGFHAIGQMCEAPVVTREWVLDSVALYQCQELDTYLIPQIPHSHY

What was measured:
[1] = target: BRCT domain (residues 566–777) of BARD1 (UniProt Q99728); experiment: pull-down; in vitro pull-down of IARS1 with fragments of the BRCA1-BARD1 complex; both purified
[2] = target: BRCA1–BARD1 complex (Flag-tagged BRCA1) (UniProt P38398); experiment: pull-down; in vitro affinity pull-down of IARS1 with the BRCA1-BARD1 complex via the Flag tag of BRCA1; immunoblot with anti-Flag and anti-His; both purified
[3] = target: wild-type Flag-tagged BRCA1 (UniProt P38398); experiment: co-IP; Flag-tagged BRCA1 (wild type, ΔRING, ΔBRCT) co-transfected with HA-tagged IARS1 in HEK293T, anti-Flag immunoprecipitation, immunoblot with anti-HA
[4] = target: T1, His-IARS1ΔUBX2, C-terminal-truncated human IARS1 (residues 1−1150) (human) (UniProt P41252); experiment: pull-down; human His-IARS1 or IARS1ΔUBX2 mixed with human GST-EARS1 at 1:1.5, 30 min at 4 °C, Ni-sepharose beads 2 hr at 4 °C, eluted with 250 mM imidazole in His A buffer (20 mM Tris-HCl pH 7.4, 300 mM NaCl, 7 mM 2-mercaptoethanol, 5% glycerol), SDS-PAGE and Coomassie; both purified
T1 sequence: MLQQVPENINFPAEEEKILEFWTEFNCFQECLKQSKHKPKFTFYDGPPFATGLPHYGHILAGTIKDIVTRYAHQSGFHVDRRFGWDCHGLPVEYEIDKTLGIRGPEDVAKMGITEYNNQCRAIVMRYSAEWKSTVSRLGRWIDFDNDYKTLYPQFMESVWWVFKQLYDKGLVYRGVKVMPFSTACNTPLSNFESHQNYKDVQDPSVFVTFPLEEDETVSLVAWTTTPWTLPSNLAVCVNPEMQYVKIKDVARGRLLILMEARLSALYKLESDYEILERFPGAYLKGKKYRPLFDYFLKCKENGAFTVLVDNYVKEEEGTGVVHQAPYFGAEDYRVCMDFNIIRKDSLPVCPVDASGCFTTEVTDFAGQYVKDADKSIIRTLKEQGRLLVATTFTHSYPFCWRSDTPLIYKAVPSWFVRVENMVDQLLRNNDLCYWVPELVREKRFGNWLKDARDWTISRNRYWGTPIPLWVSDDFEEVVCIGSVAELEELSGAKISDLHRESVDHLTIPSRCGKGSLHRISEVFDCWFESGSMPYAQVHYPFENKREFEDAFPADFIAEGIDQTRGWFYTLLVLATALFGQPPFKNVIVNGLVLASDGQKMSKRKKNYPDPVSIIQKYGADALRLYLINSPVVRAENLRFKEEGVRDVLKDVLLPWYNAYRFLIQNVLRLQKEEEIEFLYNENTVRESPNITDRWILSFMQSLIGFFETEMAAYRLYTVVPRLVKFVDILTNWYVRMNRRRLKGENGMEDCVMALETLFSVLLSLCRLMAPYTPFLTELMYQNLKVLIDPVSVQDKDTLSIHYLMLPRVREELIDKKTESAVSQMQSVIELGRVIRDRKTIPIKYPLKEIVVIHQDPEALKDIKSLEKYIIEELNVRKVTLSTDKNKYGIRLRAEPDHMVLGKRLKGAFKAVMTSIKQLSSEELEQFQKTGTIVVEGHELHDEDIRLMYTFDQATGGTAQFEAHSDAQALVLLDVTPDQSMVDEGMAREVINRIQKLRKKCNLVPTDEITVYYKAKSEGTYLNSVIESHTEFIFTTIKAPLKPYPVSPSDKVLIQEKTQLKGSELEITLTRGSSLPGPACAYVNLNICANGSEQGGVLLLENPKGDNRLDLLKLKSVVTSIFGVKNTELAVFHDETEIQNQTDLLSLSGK

binding [1]: no binding
binding [2]: binds
B1: His-IARS1, full-length human IARS1 (residues 1−1262) (enzyme, UniProt P41252 1-1262)
chain: MLQQVPENINFPAEEEKILEFWTEFNCFQECLKQSKHKPKFTFYDGPPFATGLPHYGHILAGTIKDIVTRYAHQSGFHVDRRFGWDCHGLPVEYEIDKTLGIRGPEDVAKMGITEYNNQCRAIVMRYSAEWKSTVSRLGRWIDFDNDYKTLYPQFMESVWWVFKQLYDKGLVYRGVKVMPFSTACNTPLSNFESHQNYKDVQDPSVFVTFPLEEDETVSLVAWTTTPWTLPSNLAVCVNPEMQYVKIKDVARGRLLILMEARLSALYKLESDYEILERFPGAYLKGKKYRPLFDYFLKCKENGAFTVLVDNYVKEEEGTGVVHQAPYFGAEDYRVCMDFNIIRKDSLPVCPVDASGCFTTEVTDFAGQYVKDADKSIIRTLKEQGRLLVATTFTHSYPFCWRSDTPLIYKAVPSWFVRVENMVDQLLRNNDLCYWVPELVREKRFGNWLKDARDWTISRNRYWGTPIPLWVSDDFEEVVCIGSVAELEELSGAKISDLHRESVDHLTIPSRCGKGSLHRISEVFDCWFESGSMPYAQVHYPFENKREFEDAFPADFIAEGIDQTRGWFYTLLVLATALFGQPPFKNVIVNGLVLASDGQKMSKRKKNYPDPVSIIQKYGADALRLYLINSPVVRAENLRFKEEGVRDVLKDVLLPWYNAYRFLIQNVLRLQKEEEIEFLYNENTVRESPNITDRWILSFMQSLIGFFETEMAAYRLYTVVPRLVKFVDILTNWYVRMNRRRLKGENGMEDCVMALETLFSVLLSLCRLMAPYTPFLTELMYQNLKVLIDPVSVQDKDTLSIHYLMLPRVREELIDKKTESAVSQMQSVIELGRVIRDRKTIPIKYPLKEIVVIHQDPEALKDIKSLEKYIIEELNVRKVTLSTDKNKYGIRLRAEPDHMVLGKRLKGAFKAVMTSIKQLSSEELEQFQKTGTIVVEGHELHDEDIRLMYTFDQATGGTAQFEAHSDAQALVLLDVTPDQSMVDEGMAREVINRIQKLRKKCNLVPTDEITVYYKAKSEGTYLNSVIESHTEFIFTTIKAPLKPYPVSPSDKVLIQEKTQLKGSELEITLTRGSSLPGPACAYVNLNICANGSEQGGVLLLENPKGDNRLDLLKLKSVVTSIFGVKNTELAVFHDETEIQNQTDLLSLSGKTLCVTAGSAPSLINSSSTLLCQYINLQLLNAKPQECLMGTVGTLLLENPLGQNGLTHQGLLYEAAKVFGLRSRKLKLFLNETQTQEITEDIPVKTLNMKTVYVSVLPTTADF

binding [3]: binds
B2: HA-tagged IARS1 (enzyme, UniProt P41252 1-1262)
chain: MLQQVPENINFPAEEEKILEFWTEFNCFQECLKQSKHKPKFTFYDGPPFATGLPHYGHILAGTIKDIVTRYAHQSGFHVDRRFGWDCHGLPVEYEIDKTLGIRGPEDVAKMGITEYNNQCRAIVMRYSAEWKSTVSRLGRWIDFDNDYKTLYPQFMESVWWVFKQLYDKGLVYRGVKVMPFSTACNTPLSNFESHQNYKDVQDPSVFVTFPLEEDETVSLVAWTTTPWTLPSNLAVCVNPEMQYVKIKDVARGRLLILMEARLSALYKLESDYEILERFPGAYLKGKKYRPLFDYFLKCKENGAFTVLVDNYVKEEEGTGVVHQAPYFGAEDYRVCMDFNIIRKDSLPVCPVDASGCFTTEVTDFAGQYVKDADKSIIRTLKEQGRLLVATTFTHSYPFCWRSDTPLIYKAVPSWFVRVENMVDQLLRNNDLCYWVPELVREKRFGNWLKDARDWTISRNRYWGTPIPLWVSDDFEEVVCIGSVAELEELSGAKISDLHRESVDHLTIPSRCGKGSLHRISEVFDCWFESGSMPYAQVHYPFENKREFEDAFPADFIAEGIDQTRGWFYTLLVLATALFGQPPFKNVIVNGLVLASDGQKMSKRKKNYPDPVSIIQKYGADALRLYLINSPVVRAENLRFKEEGVRDVLKDVLLPWYNAYRFLIQNVLRLQKEEEIEFLYNENTVRESPNITDRWILSFMQSLIGFFETEMAAYRLYTVVPRLVKFVDILTNWYVRMNRRRLKGENGMEDCVMALETLFSVLLSLCRLMAPYTPFLTELMYQNLKVLIDPVSVQDKDTLSIHYLMLPRVREELIDKKTESAVSQMQSVIELGRVIRDRKTIPIKYPLKEIVVIHQDPEALKDIKSLEKYIIEELNVRKVTLSTDKNKYGIRLRAEPDHMVLGKRLKGAFKAVMTSIKQLSSEELEQFQKTGTIVVEGHELHDEDIRLMYTFDQATGGTAQFEAHSDAQALVLLDVTPDQSMVDEGMAREVINRIQKLRKKCNLVPTDEITVYYKAKSEGTYLNSVIESHTEFIFTTIKAPLKPYPVSPSDKVLIQEKTQLKGSELEITLTRGSSLPGPACAYVNLNICANGSEQGGVLLLENPKGDNRLDLLKLKSVVTSIFGVKNTELAVFHDETEIQNQTDLLSLSGKTLCVTAGSAPSLINSSSTLLCQYINLQLLNAKPQECLMGTVGTLLLENPLGQNGLTHQGLLYEAAKVFGLRSRKLKLFLNETQTQEITEDIPVKTLNMKTVYVSVLPTTADF

binding [4]: no binding
B3: GST-EARS1 with three WHEP motifs (human EPRS1 residues 1–1015) (domain or fragment, UniProt P07814 1-1015)
chain: MATLSLTVNSGDPPLGALLAVEHVKDDVSISVEEGKENILHVSENVIFTDVNSILRYLARVATTAGLYGSNLMEHTEIDHWLEFSATKLSSCDSFTSTINELNHCLSLRTYLVGNSLSLADLCVWATLKGNAAWQEQLKQKKAPVHVKRWFGFLEAQQAFQSVGTKWDVSTTKARVAPEKKQDVGKFVELPGAEMGKVTVRFPPEASGYLHIGHAKAALLNQHYQVNFKGKLIMRFDDTNPEKEKEDFEKVILEDVAMLHIKPDQFTYTSDHFETIMKYAEKLIQEGKAYVDDTPAEQMKAEREQRIDSKHRKNPIEKNLQMWEEMKKGSQFGQSCCLRAKIDMSSNNGCMRDPTLYRCKIQPHPRTGNKYNVYPTYDFACPIVDSIEGVTHALRTTEYHDRDEQFYWIIEALGIRKPYIWEYSRLNLNNTVLSKRKLTWFVNEGLVDGWDDPRFPTVRGVLRRGMTVEGLKQFIAAQGSSRSVVNMEWDKIWAFNKKVIDPVAPRYVALLKKEVIPVNVPEAQEEMKEVAKHPKNPEVGLKPVWYSPKVFIEGADAETFSEGEMVTFINWGNLNITKIHKNADGKIISLDAKLNLENKDYKKTTKVTWLAETTHALPIPVICVTYEHLITKPVLGKDEDFKQYVNKNSKHEELMLGDPCLKDLKKGDIIQLQRRGFFICDQPYEPVSPYSCKEAPCVLIYIPDGHTKEMPTSGSKEKTKVEATKNETSAPFKERPTPSLNNNCTTSEDSLVLYNRVAVQGDVVRELKAKKAPKEDVDAAVKQLLSLKAEYKEKTGQEYKPGNPPAEIGQNISSNSSASILESKSLYDEVAAQGEVVRKLKAEKSPKAKINEAVECLLSLKAQYKEKTGKEYIPGQPPLSQSSDSSPTRNSEPAGLETPEAKVLFDKVASQGEVVRKLKTEKAPKDQVDIAVQELLQLKAQYKSLIGVEYKPVSATGAEDKDKKKKEKENKSEKQNKPQKQNDGQRKDPSKNQGGGLSSSGAGEGQGPKKQTRLG
